# Experimental data from the RNAGym collection of RNA variant scans (doi:10.7554/elife.90254).
# The source gives no read counts; variants with many changes may rest on few reads.
# B1: LINE1-mini (parent)
# chain: GGCAGAGCUCAACACAGCGUGGCAAAGUGGCUGUGGCUAGACUGCC
# Variants of: B1
# Assay: self-cleavage, relative activity (ratio to wild type); higher = more cleavage; in vitro, sequencing; the parent is a self-cleaving ribozyme
row,Variant,self-cleavage
1,GGAAGAGCUCAACACAGCGUGGCAAAGUCGCUGUGGCGAGACUGCC [C3A G29C U38G],0.01
2,GGAAGAGCACAACACAGCGUGCCAAAAUGGCUGUUGCUAGACUUCC [C3A U9A G22C G27A G35U G44U],0.08
3,GGAAGAGCUCAACACAGCGAGGCAAAGUGGCUAUGGCUAGACUGCC [C3A U20A G33A],0.2
4,GGAAGAGCUCAACACAGCGGGGCAAAGUGGCUGUGGAUAGACUGCG [C3A U20G C37A C46G],0.03
5,GGAAGAGCUCAACACAGCGUGGCAAAGUGGCCGUGGCUAGAAUGCC [C3A U32C C42A],0.1
6,GGAAGAGCUCAACACAGCGUGGCAAAGUGGCUUUUGCUAGACUGCG [C3A G33U G35U C46G],0.09
7,GGAAGAGCACAACACAGCGUGGGAAAGUGACUGUGGCUAGACUGCC [C3A U9A C23G G30A],0.2
8,GGAAGAGCUCAACACAGCGCGCCAAACUGGCUGUGGCUAGACUGCC [C3A U20C G22C G27C],0.07
9,GGAAGAGCUCAACACAGCGUGGCAAAGUGACUGUGGCUAGACUACA [C3A G30A G44A C46A],0.1
10,GGAAGAGCUCAACACAGCGUGGCAAAGUGUCAGUGGCUAGACUGCC [C3A G30U U32A],0.17
11,GGAAGAGCCCAACACAGCGUGGCAAAUUGGCUAUGCCUAGACUGCC [C3A U9C G27U G33A G36C],0.05
12,GGAAGAGCGCAAAACAGCGCGGCAAAGUGGCUGAGGCUAGACUGCC [C3A U9G C13A U20C U34A],0.12
13,GGAAGAGCACAAAACAGCGUGGCAAAGCGGCUGUGGCUAUAUUGCC [C3A U9A C13A U28C G40U C42U],0.34
14,GGAAGAGCUCAACACAGCGUGGCAAAGUGGCUGUGGCUACACUCCC [C3A G40C G44C],0.05
15,GGAAGAGCUCAACACAGCGUGGCAAAGCGGCUGUGGCUAGACUGCU [C3A U28C C46U],0.29
16,GGAAGAGCUCAACACAGCGCGGCAAAGUGGCUGUGGCUAGACAGCC [C3A U20C U43A],0.08
17,GGAAGAGCUCAACACAGCGUGGCAAAGUGGCAGUGGGUAGACUGCA [C3A U32A C37G C46A],0.05
18,GGAAGAGCUCAACACAGCGUGUCACAGUGGCUGUGGCUAGACUGCC [C3A G22U A25C],1.13
19,GGAAGAGCUCAACACAGCGAGGCAAAGUGUCCGUGGCUAUACUGCC [C3A U20A G30U U32C G40U],0.17

row,Variant,self-cleavage
1,GGAAGAGCCCAACACAGCUUGGCAACGUAGCUGUGGCUAGACUGGC [C3A U9C G19U A26C G29A C45G],0.01
2,GGAAGAGCUCAACACAGCGUGGCAAAGUCGCUCUGGCUAUACUGCC [C3A G29C G33C G40U],0.1
3,GGAAGAGCUCAACACAGCGUGGCAAAGGAGCAGUGGCUAGACUGCC [C3A U28G G29A U32A],0.1
4,GGAAGAGCUCAACACAGCAUGGCAAAAUGGCUGUGGCUAAACUGCC [C3A G19A G27A G40A],0.15
5,GGAAGAGCUCAACACAGCGUGCCAAAGUUGCUGUGACUAGACUGCA [C3A G22C G29U G36A C46A],0.16
6,GGAAGAGCUCAACACAGCGGGGCAAAGUGGCUGUGGCUCGACUGCG [C3A U20G A39C C46G],0.09
7,GGAAGAGCUCAACACAGCGUGGCAAAGUGGCUGUGCCUAGACGCCC [C3A G36C U43G G44C],0.4
8,GGAAGAGCACAACACAGCGUGGCAAAGUGUCUGUGGCUAGAAUGUC [C3A U9A G30U C42A C45U],0.36
9,GGAAGAGCUCAACACAGCCUGGCAAAGUGGCUGUGGUUAGACUGCC [C3A G19C C37U],0.02
10,GGAAGAGCUCAACACAGCGUUGCAAAGUGGCUGUGGCUAGACUCCC [C3A G21U G44C],0.9
11,GGAAGAGCUCAACACAGCGUGACGAAGUGGUUGUGCCUAGACUGCC [C3A G22A A24G C31U G36C],0.07
12,GGAAGAGCUCAACACAGCGUGGCAAAGUGGCUGUAGCUAGCCUUCC [C3A G35A A41C G44U],0.09
13,GGAAGAGCUCAACACAGCGUUGCAAUGUGGCUGUGGCUAGACUGCC [C3A G21U A26U],0.77
14,GGAAGAGCUCAACACAGCGAGGAAAAGUCGCUGUGGCUAGACUGCC [C3A U20A C23A G29C],0.09
15,GGAAGAGCGCAACACAGCGUAGCAAAGUGGCUGUGGCUAGACUGCC [C3A U9G G21A],0.08
16,GGAAGAGCUCAACACAGCGUGUCAAAGUUGCUGUGGCUAGACUGCC [C3A G22U G29U],0.49
17,GGAAGAGCUCAACACAGCGUGGCAAAGUGGCUGUGAAUAGACUGCC [C3A G36A C37A],1.08
18,GGAAGAGCUCAACACAGCGUUGAAAAGUGGCGGUGGCUAGACUGCA [C3A G21U C23A U32G C46A],0.05
19,GGAAGAGCGCAACAAAGCGUGGCAAAGUGGCGGUGGGUCAACUACC [C3A U9G C15A U32G C37G A39C G40A G44A],0.29

row,Variant,self-cleavage
1,GGAAGAGCUCAACACAGCGUGGCAAAGUGUCUGAGGCUAGACUGCC [C3A G30U U34A],0.03
2,GGAAGAGCCCAACUCAGCGUGGCAAAGUGGCUGUGGCUAGACUGCC [C3A U9C A14U],0.05
3,GGAAGAGCUCAACACAGCGGGACAAAGUGGCUGUGUCUAGACUGCC [C3A U20G G22A G36U],0.22
4,GGAAGAGCUCAACACAGCGUGGCAAAGUGCCUGUGGCUACACUGCC [C3A G30C G40C],0.16
5,GGAAGAGCUCAACACAGCUUGGCGAAGUGGCUGUGGCUUGACUGCC [C3A G19U A24G A39U],0.18
6,GGAAGAGCUCAACACAGCGUGUCAAAGUGGCUCUAGCUAGACUGCC [C3A G22U G33C G35A],0.03
7,GGAAGAGCACAACACAGCGUGGCAAAGUGGCCGUUGCUAGACUGCC [C3A U9A U32C G35U],1.42
8,GGAAGAGCACAACACAGCGUGGCACAGUGGCUGUGGCUAAACUGCC [C3A U9A A25C G40A],0.18
9,GGAAGAGCUCAACACAGCGUGGCAAAGUGGCUGUGACUUGACUGCC [C3A G36A A39U],0.04
10,GGAAGAGCUCAACACAGCGUGGCAAAAUGGCUGUGGCUAGACUGUC [C3A G27A C45U],0.61
11,GGAAGAGCUCAACACAGCGUGGCAAAGUGACUGUGGCUAGACUGCA [C3A G30A C46A],0.13
12,GGAAGAGCUCAACACAGCGGGGCAAACUGGCUAUGGCUAGACUGCC [C3A U20G G27C G33A],0.04
13,GGAAGAGCACAACACAGCGUGGCAAACUGGCUGUGGCUUUACUGCC [C3A U9A G27C A39U G40U],0.01
14,GGAAGAGCACAACACAGCGUGGCAAAGUGGCUGUGGCAAGAAUGCC [C3A U9A U38A C42A],0.06
15,GGAAGAGCUCAACACAGCAUGGCAAAGUGGCUGAGGCUAGUCUGCC [C3A G19A U34A A41U],0.02
16,GGAAGAGCUCAACACAGCGGGGCAAAGUGGCUGUGGCUACACUGGC [C3A U20G G40C C45G],0.09
17,GGAAGAGCUCAACACAGCGUGGCAAAGUCUCUGUGGCUAGACUGCC [C3A G29C G30U],0.15
18,GGAAGAGCACAACACACAGUGGCGAAGUGGCUGUGGCUAGACUGCC [C3A U9A G17C C18A A24G],0.26
